# In PubChem BioAssay AID686978 (National Center for Advancing Translational Sciences (NCATS), 2013):
# Among all 420,000 compounds or so, about 64,000 (15%) were called active. The shares of active, inactive and inconclusive entries below differ from those in the screen. Calls come from the whole dose curve; as a rule, active = well fitted inhibition curve with a large enough effect; inconclusive = small, poorly fitted or top-dose-only effect; inactive = flat fitted curve, though single readings scatter. Potencies of inconclusive entries are left out as doubtful fits.
# Experiment: qHTS for Inhibitors of human tyrosyl-DNA phosphodiesterase 1 (TDP1): qHTS in cells in absence of CPT; note: nearly all actives have a fitted effect of over 55% in size
# Conditions: DT40 Tdp1-/- hTDP1 cells, no CPT, ATP luminescence, 48 h; activity change, negative = growth inhibition: at 46.2 µM (top of the series)
# Method in brief: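 Growth kinetics read by CellTiter-Glo luminescence after ≥48 hr at 37 °C. Cells: DT40 Tdp1-/- stably carrying human TDP1, 400 per well, compound exposure in the absence of CPT (DMSO vehicle).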
# % is set by controls: 0 for no effect and ±100 for the full control effect; potency is the fitted concentration of half-maximal effect; tags give direction and shape of the fitted curve.
SMILES,Potency,"activity change, negative = growth inhibition"
COc1ccc(C(=O)C(=O)N2CCN(c3ccccc3F)CC2)cc1,"inconclusive [inhibitor, single point]",–
CSc1nc(N)c2c(n1)N(C)C=NS2(=O)=O,–,inactive: -16.5%
O=C(Nc1ccc(Br)cc1Br)C1CC(=O)N(Cc2ccccc2)C1 (centres undefined),–,inactive: -25.6%
C=CCNC(=O)C1CC1(c1ccccc1)c1ccccc1 (centres undefined),–,inconclusive: -31.2% [inhibitor]
Cc1cc(Oc2ccccc2)nc(SCC(=O)Nc2ccc(Cl)c(Cl)c2)n1,active: 18.4 µM,–
O=C(Nc1cccc2ccccc12)OCc1ccccc1,"inconclusive [inhibitor, partial curve, poor fit]",–
Cc1cccnc1NC(=O)c1c(O)c2cccc3c2n(c1=O)CCC3,"inconclusive [inhibitor, single point]",–
CC1C(=O)Nc2ccccc2N1C(=O)c1ccc(O)cc1 (centres undefined),–,inactive: 4.86%
Cc1ccc(OCC(=O)Nc2ccncc2)cc1C,"inconclusive [inhibitor, single point]",–
CCOC(=O)N1CCN(CC(=O)Nc2ccc([N+](=O)[O-])cc2C(=O)Nc2ccccc2F)CC1,active: 9.2 µM,–
O=C(c1cnn(Cc2ccccc2)c1)N1CCN(S(=O)(=O)/C=C/c2ccccc2)CC1,"inconclusive [inhibitor, single point]",–
CC(=O)c1nn(-c2ccc(Cl)cc2)c(=O)[nH]c1=O,–,inactive: 0.163%
Nn1cnnc1N/N=C/c1cc(Br)cc(Br)c1O,"inconclusive [inhibitor, single point]",–
CC1(C)CC(=O)C2=C(C1)OC1=C(C(=O)CC(C)(C)C1)C2c1cc([N+](=O)[O-])cc([N+](=O)[O-])c1O,"inconclusive [inhibitor, single point]",–
CCCNc1ccc(-c2nc(-c3ccccn3)no2)cc1[N+](=O)[O-],–,inactive: -15.5%
CN(CC(=O)NC(=O)NCc1ccccc1)CC(=O)Nc1ccc(Cl)c(C(F)(F)F)c1,active: 20.6 µM,–
COCCCn1c(C)cc(C(=O)CN2c3cccc4cccc(c34)S2(=O)=O)c1C,active: 16.4 µM,–
O=C(OCc1nc2ccc(Cl)cc2n1CCO)c1ccccc1,–,inactive: -27.1%
COc1cc(OC)cc(-c2c(C#Cc3ccsc3)c3cc(-c4cccc5[nH]cc(C=O)c45)ccc3n2C)c1,"inconclusive [inhibitor, single point]",–
CCCCNC(=O)c1ccc2c(c1)ncn2-c1cc(OC)ccc1OC,"inconclusive [inhibitor, single point]",–
CCc1ccc2c(c1)C(=O)C(=O)N2CC(=O)Nc1ccc(NC(=O)c2ccccn2)cc1,"inconclusive [inhibitor, single point]",–
O=C(NC(=S)Nc1ccc(N2CCOCC2)cc1)c1cncc(Br)c1,–,inactive: -5.69%
COc1cc(S(=O)(=O)N2CCOCC2)ccc1NC(=O)COC(=O)c1cc(OC)c(OC)c(OC)c1,"inconclusive [inhibitor, partial curve]",–
COC(=O)C1=C(C)N(C)C(=S)NC1c1ccccc1 (centres undefined),–,inconclusive: -28.9% [inhibitor]
O=C1CCCc2nn(-c3ccccc3)c(-c3ccncc3)c21,active: 16.4 µM,–

SMILES,Potency,"activity change, negative = growth inhibition"
CC(=O)c1c(C)[nH]c(C(=O)Nc2cc(C)cc(C)c2)c1C,"inconclusive [inhibitor, single point]",–
COc1ccc(OC)c(NC(=O)COC(=O)CCC2CCCC2)c1,–,inactive: -18.3%
CNC(=S)N(CCc1c(C)[nH]c2ccc(OC)cc12)Cc1cc(OC)c(OC)c(OC)c1,"inconclusive [inhibitor, single point]",–
CCc1ccc(/C=C2\SC(=S)N(CCC(=O)NCCCN3CCOCC3)C2=O)cc1,"inconclusive [inhibitor, single point]",–
CC1=C[C@H](C)[C@H](c2c(F)cccc2Cl)CC1=O,–,inactive: -15.4%
O=C(C1CCCN1S(=O)(=O)c1cccc2cccnc12)N1CCn2c1nc1ccccc12 (centres undefined),–,inactive: -17.3%
CC1(C(=O)Nc2ccc3c(c2)OCO3)CCN1C(=O)CCc1ccc(Cl)cc1Cl (centres undefined),"inconclusive [inhibitor, single point]",–
CCN1CCCC1CNC(=O)c1cnn(-c2nccc(-c3cccs3)n2)c1C(C)C (centres undefined),"inconclusive [inhibitor, partial curve]",–
COC(=O)c1ccc(NC(=O)CCn2cnnn2)cc1,–,inactive: 6.94%
COc1ccc2[nH]cc(CCNc3nc(-c4cccnc4)nc4ccccc34)c2c1,"inconclusive [inhibitor, single point]",–
Cc1ccsc1/C=C1\SC(N2CCOCC2)=NC1=O,–,inconclusive: -34.1% [inhibitor]
O=C(O)CCc1ccc(S(=O)(=O)Nc2cc(C(F)(F)F)ccc2N2CCCC2)cc1,–,inactive: -16.3%
c1ccc(COc2ccc(OCCCNC3CCCC3)cc2)cc1,active: 20.6 µM,–
Cc1ccc(NC(=O)CNC(=O)c2cccc(Cl)c2)nc1,"inconclusive [inhibitor, single point]",–
Cc1ccc([N+](=O)[O-])cc1NC(=O)CNC1CCCCC1,–,inactive: -9.48%
CSc1cccc(N2C(=O)C3CCCN3C2=S)c1 (centres undefined),–,inactive: -20.3%
CCCC(=O)Nc1ccc(C=C(C(C)=O)C(C)=O)cc1,"inconclusive [inhibitor, single point]",–
COc1ccccc1NC1CCCCC1NS(=O)(=O)c1ccccc1 (centres undefined),–,inactive: -24.5%
CC1CCC(C(=O)NC(C(=O)N2CCN(c3ccccn3)CC2)C(C)C)CC1 (centres undefined),"inconclusive [inhibitor, partial curve]",–
O=C(NNC(=S)NC(=O)c1ccccc1Cl)c1cccc([N+](=O)[O-])c1,"inconclusive [inhibitor, single point]",–
CC(NS(=O)(=O)c1ccc(Br)s1)c1ccccc1 (centres undefined),"inconclusive [inhibitor, single point]",–
COCC1CCCN(Cc2cn(-c3ccccc3F)nc2-c2cc(C)sc2C)C1 (centres undefined),active: 18.4 µM,–
CCc1cccc(NC(=O)CCNS(=O)(=O)c2cccc3nonc23)c1,inactive,–
Cc1ccc(C(C)C)c(OCC(=O)NNC(=O)Nc2ccccc2)c1,"inconclusive [inhibitor, partial curve]",–
CCn1cc(/C=C/C(=O)Nc2ccc(C)cc2Br)cn1,"inconclusive [inhibitor, single point]",–

SMILES,Potency,"activity change, negative = growth inhibition"
COCc1c(C(=O)N/N=C/c2ccc(C)o2)nnn1-c1nonc1N,–,inactive: 7.74%
COC(=O)c1ccc(NC(=O)c2nc(-c3ccc(Cl)cc3)n3c2CCCCC3)cc1,active: 0.82 µM,–
O=C(COC(=O)c1ccc2c(c1)OCO2)NC1CCCCC1,–,inactive: -0.226%
CCOC(=O)CNC(=O)CNC(=O)c1nn(-c2ccc(OC)c(OC)c2)c(=O)c2ccccc12,–,inactive: -28.8%
Cc1nc(N2CCC(C)CC2)c2c(C)c(C(=O)Nc3ccc4c(c3)OCCO4)sc2n1,"inconclusive [inhibitor, single point]",–
CCc1ccccc1NNC(=O)c1cc(C)on1,–,inconclusive: -30.1% [inhibitor]
Cc1c(C)n(Cc2ccc(Cl)cc2)c2ccc(C(=O)NCCN3CCOCC3)cc12,"inconclusive [inhibitor, single point]",–
CC1=C(/C=C/C(C)=C\C=C\C(C)=C\C(=O)O)C(C)(C)CCC1,active: 25.9 µM,–
O=S(=O)(NC1CC1)c1ccc(Br)cc1N1CCC[C@H]1CO,"inconclusive [inhibitor, single point]",–
COc1cc(-c2n[nH]c(=S)n2-c2ccccc2C(F)(F)F)cc(OC)c1OC,–,inactive: -28.3%
COc1ccc(Cl)cc1NS(=O)(=O)c1cccc(C(=O)NC2CC2)c1,–,inactive: -28.6%
CN(c1ccccc1)S(=O)(=O)c1cccc(NC(=O)C2CC(=O)N(Cc3ccccc3)C2)c1 (centres undefined),active: 20.6 µM,–
O=C1NC2(CCCCC2)NN1c1ccccc1,"inconclusive [inhibitor, full curve, poor fit]",–
Cc1ccc(S(=O)(=O)CNC(=S)c2cccc(Cl)c2)cc1,"inconclusive [inhibitor, single point]",–
COc1cc(NC(=O)CCC(=O)Nc2ccc3nc(N4CCOCC4)cc(C)c3c2)cc(OC)c1OC,"inconclusive [inhibitor, single point]",–
CCOC(=O)c1cnc(SCc2ccc(C(C)(C)C)cc2)nc1N,"inconclusive [inhibitor, single point]",–
Cc1ccccc1N/C(SCc1cccc(Br)c1)=C(/C#N)C(N)=O,"inconclusive [inhibitor, partial curve]",–
CC(NC(=O)C(Cc1ccccc1)N1C(=O)C2C3CCC(C3)C2C1=O)c1ccccc1 (centres undefined),"inconclusive [inhibitor, single point]",–
Cc1ccc(-c2csc3ncn(C(C)C(=O)O)c(=O)c23)cc1 (centres undefined),–,inactive: 3.22%
O=C(c1cccc(F)c1)N1CCC[C@@]2(CCN(c3ccccc3)C2)C1,"inconclusive [inhibitor, single point]",–
CCC(C)NC(=O)Cn1c(=O)n(CCCCCC(=O)NCc2ccccc2Cl)c(=O)c2sccc21 (centres undefined),"inconclusive [inhibitor, partial curve]",–
CCNC(=O)CCc1nc(-c2ccc(C(C)(C)C)cc2)no1,"inconclusive [inhibitor, single point]",–
O=C(CSc1nnc(CNc2ccc(F)cc2)n1-c1ccccc1)N1CCOCC1,"inconclusive [inhibitor, partial curve]",–
CCOc1ccc(S(=O)(=O)N2CCCC(C(=O)NC3CC3)C2)cc1Cl (centres undefined),"inconclusive [inhibitor, partial curve]",–
